Test results taken from PubChem BioAssay AID651820 (National Center for Advancing Translational Sciences (NCATS), 2012).
In all, about 340,000 compounds went through this assay and about 12,000 (3.5%) were called active. Inconclusive results, whose numbers are uncertain, are shown with a selection of clear calls. Calls come from the whole dose curve; as a rule, active = well fitted inhibition curve with a large enough effect; inconclusive = small, poorly fitted or top-dose-only effect, or another doubt; inactive = no such curve, though single readings can be large or run the other way. No potency is given beside an inconclusive call; the fits are too rough.

Assay: qHTS Assay for Inhibitors of Hepatitis C Virus (HCV)
Conditions: Huh7.5.1 HCVcc-Cre (HCVcc is cell-culture hepatitis C virus) infection, luciferase reporter, 44 h; series mostly up to 41.8 µM
Outline: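 HCVcc-Cre virus at an moi near 0.5 was added right after compound to cells cultured 4 h from seeding (1,000 cells/well). Luciferase activity was determined 44 h later, 15 min after substrate addition at RT.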
Potency is the fitted concentration of half-maximal effect; tags give direction and shape of the fitted curve.

Row | SMILES | Potency
1 | COC(=O)c1ccc2c(=O)n(Cc3ccc(C(=O)NC(C)C)cc3)c(=S)[nH]c2c1 | active: 7.94 µM
2 | COc1ccc(CCn2c(=N)c(C(=O)NC3CCCC3)cc3c(=O)n4ccccc4nc32)cc1 | inconclusive [inhibitor, partial curve]
3 | COc1ccccc1C(CNC(=O)C(C)(C)Oc1ccc(Cl)cc1)N1CCCC1 (stereo not drawn) | inconclusive [inhibitor, single point]
4 | COc1cc2ncnc(NCc3cccc(F)c3F)c2cc1OC | inactive
5 | O=C(CCS(=O)(=O)c1ccccc1Cl)NC1CCCCCC1 | inactive
6 | CC(C)OC(=O)NCCOC(=O)Nc1ccc(Cl)c(Cl)c1 | inconclusive [inhibitor, single point]
7 | COc1cc2c(c(OCC(=O)NC(C)C)c1)C(=O)O[C@@H](C)CCCC(=O)CCCCC2 | inconclusive [inhibitor, single point]
8 | COc1ccc(-c2nnc(SCC(=O)c3ccc[nH]3)o2)cc1 | inconclusive [inhibitor, single point]
9 | COc1ccc(CN(C)C(=O)/C=C/c2ccc(S(=O)(=O)N3CCCCCC3)cc2)cc1 | active: 11.2 µM
10 | COc1ccc(-n2nnnc2-c2cnc(N3CCCC3)nc2C(F)(F)F)cc1 | inconclusive [inhibitor, single point]
11 | O=C(NCCOc1ccccc1F)c1cc([N+](=O)[O-])ccc1N1CCOCC1 | inconclusive [inhibitor, partial curve]
12 | Cc1onc(-c2ccccc2)c1C(=O)Nc1ccc(OC(C)C)cc1 | inactive
13 | COCCCNC(=O)CN1C(=O)/C(=C/c2ccccc2)Sc2ccccc21 | inconclusive [inhibitor, single point]
14 | Oc1ccc(N2CCN(C(c3cccs3)c3nnnn3CCc3ccccc3)CC2)cc1 (stereo not drawn) | inconclusive [inhibitor, single point]
15 | CCOc1ccc(CN2CCN(C(=O)Cc3ccccc3)CC2)cc1 | inconclusive [inhibitor, single point]
16 | CC(C)(C)c1ccc(CSc2nc(N)cc(=O)[nH]2)cc1 | inconclusive [inhibitor, single point]
17 | CCN(CC)S(=O)(=O)c1cc(C)c(C)cc1OCC(=O)NC1CCCC1 | inconclusive [inhibitor, single point]
18 | CCc1ccc(NC(=O)c2sccc2-n2cccc2)cc1 | inactive
19 | O=C(CNc1ccc2ccccc2c1)N/N=C/c1ccc([N+](=O)[O-])o1 | inconclusive [inhibitor, single point]
20 | O=C(N/N=C1\CCc2ccccc21)c1ccc(O)cc1 | inconclusive [inhibitor, single point]
21 | CCN(c1ccccc1)S(=O)(=O)c1ccc(Cl)c(NC(=O)CN2C(=O)NC3(CCCC3)C2=O)c1 | inconclusive [inhibitor, single point]
22 | CN1C(=O)C(O)(CC(=O)/C=C/c2ccco2)c2cc(Br)ccc21 (stereo not drawn) | active: 11.2 µM
23 | O=C(Nc1nc(-c2ccco2)c(-c2ccco2)s1)C1CCC1 | inconclusive [inhibitor, single point]

Row | SMILES | Potency
24 | COc1cc2c(-c3ccc4cc[nH]c4c3)c(-c3ccc(C#N)cc3)oc(=O)c2cc1OC | active: 11.2 µM
25 | COc1ccc(C=O)cc1Cn1c(=O)n(CCC(=O)NCc2ccco2)c(=O)c2sccc21 | inactive
26 | COc1ccc(N2CCN(C(=O)COC(=O)CSc3ccccc3)CC2)cc1 | inactive
27 | CC1(C)CC(NC(=O)c2ccc(Cl)c(S(=O)(=O)N(Cc3ccccc3)c3ccccc3)c2)CC(C)(C)N1 | inconclusive [inhibitor, partial curve]
28 | O=C(/C=C/c1ccncc1)c1ccc2c(c1)OCCO2 | inactive
29 | O=C(Nc1nc2ccccc2[nH]1)C1CCC1 | inconclusive [inhibitor, partial curve]
30 | Cc1ccc(S(=O)(=O)Nc2ccccc2CNc2ncc(Br)cc2Br)cc1 | inconclusive [inhibitor, single point]
31 | O=C(CSc1nc(N2CCOCC2)nc(N2CCOCC2)n1)Nc1ccc(Cl)cc1Cl | inconclusive [inhibitor, partial curve]
32 | COc1ccc(-n2cc(-c3ccccc3)c3c(=S)nc[nH]c32)cc1 | inconclusive [inhibitor, single point]
33 | Nc1ccc(-c2cc(-c3ccc(N)cc3)nc(-c3ccccc3)n2)cc1 | inactive
34 | O=C(Nc1cccc(NC(=O)c2cccs2)c1)c1ccco1 | inconclusive [inhibitor, partial curve]
35 | O=C(NC(NC(=S)Nc1ccccc1Cl)C(Cl)(Cl)Cl)c1cccc(Cl)c1 (stereo not drawn) | inconclusive [inhibitor, single point]
36 | CN1CCN(C(c2ccc(C(F)(F)F)cc2)c2ccc3cccnc3c2O)CC1 (stereo not drawn) | active: 11.2 µM
37 | Cc1cccc(N2CCN(CC(=O)Nc3nccs3)CC2)c1C | inconclusive [inhibitor, single point]
38 | Cc1ccc(C(Sc2ccccc2)C(Cn2cncn2)C(=O)c2ccccc2)cc1 (stereo not drawn) | inconclusive [inhibitor, single point]
39 | COc1ccc(CN2C[C@]3(CO)O[C@@H](CO)C[C@@H]3S2(=O)=O)cc1 | inactive
40 | COc1cccc(CNC(=O)COc2cc(O)c3c(c2)OC(C)(C)CC3=O)c1 | active: 5.01 µM
41 | O=C(c1ccc(Cl)c(S(=O)(=O)N2CCc3ccccc32)c1)N1CCN(c2ccccc2O)CC1 | inconclusive [inhibitor, single point]
42 | S=C(NCCC1=CCCCC1)Nc1ccccc1 | inconclusive [inhibitor, single point]
43 | COc1ccccc1C(=O)NC(=O)COC(=O)C1CC1 | inconclusive [inhibitor, single point]
44 | COc1ccc(OC)c(NC(=O)CNC(c2ccccc2)c2ccccc2)c1 | inconclusive [inhibitor, partial curve]
45 | COc1ccc(C2=NOC(COc3ccc4c(C)cc(=O)oc4c3)C2)c(OC)c1 (stereo not drawn) | inconclusive [inhibitor, full curve]
46 | COc1cc(/C=C2/C(=N)N3N=C(CC(=O)N4CCOCC4)SC3=NC2=O)ccc1OCc1ccc(F)cc1 | inconclusive [inhibitor, partial curve, poor fit]

Row | SMILES | Potency
47 | Cc1ccc(C)c(OCc2cc(C(=O)N3CCN(c4ccccc4)CC3)no2)c1 | inconclusive [inhibitor, partial curve]
48 | O=C(COC(=O)Cc1ccsc1)Nc1cccc(F)c1 | inconclusive [inhibitor, single point]
49 | Clc1nc(CN2CCCCC2)nc2sc3c(c12)CCC3 | inconclusive [inhibitor, single point]
50 | Cc1cc(C)c2nc(NC(=O)c3cc(C)on3)sc2c1 | inactive
51 | CCOC(=O)C(C)Sc1cc(CS(=O)(=O)c2ccccc2)nc(-c2ccccc2)n1 (stereo not drawn) | inconclusive [inhibitor, partial curve]
52 | Cc1n[nH]c(=O)c2c(NC(=O)CSc3nc4ccccc4c(=O)n3C(C)C)oc(C)c12 | inconclusive [inhibitor, single point]
53 | CCOC(=O)c1c(C)[nH]c(C)c1S(=O)(=O)NC(CC)CN1CCOCC1 (stereo not drawn) | inactive
54 | CN(/N=C/c1cccc(Br)c1)C1=NS(=O)(=O)c2ccccc21 | inconclusive [inhibitor, single point]
55 | Cc1nn(-c2ccc(F)cc2)c(C)c1NS(=O)(=O)c1ccc2ccccc2c1 | inconclusive [inhibitor, single point]
56 | CCCCNS(=O)(=O)c1ccc2nc(SCC(=O)Nc3ccccc3Cl)[nH]c2c1 | active: 12.6 µM
57 | CCc1ccc(NC(=O)C(CC)Sc2nc3cc4c(cc3c(=O)n2Cc2ccco2)OCO4)cc1 (stereo not drawn) | inconclusive [inhibitor, partial curve]
58 | Cc1cccc(-n2cnc(C(=O)N/N=C\c3ccc(Br)cc3)c2)n1 | inactive
59 | COc1ccc(/C=C2/CSC/C(=C/c3ccc(OC)c(OC)c3)C2=O)cc1OC | inconclusive [inhibitor, full curve]
60 | CC(C)c1ccc(-c2c(C#N)c(N)nc3c2CCCCC3)cc1 | inconclusive [inhibitor, single point]
61 | CCN(CC)CCNC(=O)c1ccc(NC(=O)c2ccccc2-c2ccc(C(F)(F)F)cc2)cc1 | inconclusive [inhibitor, single point]
62 | COc1ccc(NC(=S)N(CCc2c(C)[nH]c3ccc(C)cc23)Cc2cccs2)cc1 | inconclusive [inhibitor, single point]
63 | O=C(Cn1nnc(-c2ccccc2NC(=O)C2CC2)n1)NC1CCCCC1 | inconclusive [inhibitor, partial curve]
64 | N=c1ccn(Cc2ccc(Cl)cc2)cc1 | active: 1.12 µM
65 | CCOC(=O)c1ccccc1NC(=O)COC(=O)CN1C(=O)C2CC=CCC2C1=O (stereo not drawn) | inconclusive [inhibitor, single point]
66 | O=C(N/C(=C/c1cccc([N+](=O)[O-])c1)C(=O)N1CCCCCC1)c1ccco1 | inactive
67 | Clc1ccc(-c2nc3cnccn3c2NC2CCCC2)cc1 | inconclusive [inhibitor, single point]
68 | Cc1ccc(CNC(=O)c2ccc(Cl)c(S(=O)(=O)N3CCCCC3)c2)cc1 | inconclusive [inhibitor, partial curve]
